From the supplement of paper PMC3334620
The full ranking holds about 33,000 sequences; the median of “E-score (-0.5 to 0.5)” is about -0.021, and the highest 2% start at about 0.32. The list shows a part of the results.

target: T1, Zap1 (UniProt P47043); test: PBM E-score (8-mer binding enrichment) (E-score (-0.5 to 0.5)); higher = stronger / more preferred TF binding; most listed sequences are background and not binding sites; conditions: protein concentration: 200 nM; construct: GST-full length
T1 sequence: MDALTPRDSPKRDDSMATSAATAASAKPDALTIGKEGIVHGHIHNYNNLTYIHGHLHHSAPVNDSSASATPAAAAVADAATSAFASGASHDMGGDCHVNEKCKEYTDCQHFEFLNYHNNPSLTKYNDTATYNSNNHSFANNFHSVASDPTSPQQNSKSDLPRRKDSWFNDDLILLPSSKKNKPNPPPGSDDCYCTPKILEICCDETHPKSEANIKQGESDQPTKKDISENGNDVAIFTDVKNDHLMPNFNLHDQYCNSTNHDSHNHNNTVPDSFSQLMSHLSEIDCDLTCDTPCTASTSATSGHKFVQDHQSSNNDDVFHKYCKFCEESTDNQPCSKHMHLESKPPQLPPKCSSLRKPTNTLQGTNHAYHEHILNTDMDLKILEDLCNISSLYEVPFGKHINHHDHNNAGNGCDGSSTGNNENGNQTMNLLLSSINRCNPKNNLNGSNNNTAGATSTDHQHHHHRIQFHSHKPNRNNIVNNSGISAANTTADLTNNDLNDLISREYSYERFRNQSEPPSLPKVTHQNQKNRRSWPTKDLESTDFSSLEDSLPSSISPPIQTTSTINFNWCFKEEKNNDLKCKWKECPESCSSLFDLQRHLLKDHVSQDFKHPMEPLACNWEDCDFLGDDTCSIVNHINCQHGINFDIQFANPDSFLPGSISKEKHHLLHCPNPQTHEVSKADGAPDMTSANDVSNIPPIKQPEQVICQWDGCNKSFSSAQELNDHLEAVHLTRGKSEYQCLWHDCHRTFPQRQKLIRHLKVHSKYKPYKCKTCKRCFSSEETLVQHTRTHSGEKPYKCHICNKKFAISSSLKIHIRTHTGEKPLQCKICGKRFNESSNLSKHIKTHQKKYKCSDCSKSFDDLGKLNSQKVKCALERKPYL
Experimental: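 Universal 'all 10-mer' protein binding microarrays (Agilent AMADID 015681) probed with GST-tagged S. cerevisiae TFs (full-length or DBD) made by in vitro transcription/translation (PURExpress), about 100-200 nM. Bound TF was detected with fluorescent anti-GST. Each ungapped 8-mer (which stands for itself and its reverse complement) is scored by the PBM enrichment score (E-score), a modified Wilcoxon-Mann-Whitney statistic from -0.5 to +0.5, computed with the Universal PBM Analysis Suite. Scale: above 0.35 generally sequence-specific binding.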

Sequence | PBM E-score
GTGATTGA | 0.198
AGGCATGC | -0.114
CGCGAGAC | 0.0382
CCCATGTA | -0.00257
AAGGAAGA | -0.243
ACCTGCTG | 0.0923
AAACCCGA | 0.264
TCCATGGA | 0.223
GAGATAGA | -0.203
GGCCTCTA | 0.0229
TAGTGTAA | 0.0751
ATCAAGTG | 0.0889
TATGCCCA | -0.0534
AAATGCAC | -0.0899
CCATATTA | 0.159
GTCGGGAA | -0.157
CCCCCGTA | -0.263
CGGGCAAG | -0.146
CTACTGAA | -0.0809
TACTTCAA | 0.0283
CCTACCTC | 0.125
CTATATTA | 0.161

Sequence | PBM E-score
CCCATAGC | -0.23
ATGACCCA | 0.397
CCAAATTC | 0.14
AGGGGACA | 0.0162
CCCTGGAG | 0.0729
ATTGTAGG | 0.234
ATACGTAC | -0.00929
AAGAAGTG | -0.138
ATTACAGA | 0.158
CGTTCATC | 0.00105
CAAGGTAC | 0.357
CATGTCTC | -0.158
CGATAAGA | -0.0114
CAACGTAA | 0.00769
ATAATTGC | -0.0517
CGTCTGAG | -0.149
GGTGGCAA | -0.113
AGAGTTGG | -0.232
CTAAACCA | 0.104
ATATCATC | -0.031
ACGGATTA | -0.195
AATGTGAA | 0.113

Sequence | PBM E-score
TCGTACCA | 0.149
ACTGCGCT | -0.191
CCAGTCTC | -0.22
CCACCACG | 0.123
GCCAAGCC | -0.181
AACCTCAC | 0.244
CCTAGAAG | 0.0494
CTGAATTC | -0.0926
ACTCTGGA | 0.152
AGGCTTCA | -0.377
ATGTTCCA | 0.028
ACTGGAGG | 0.0644
GCCGCGCC | -0.0853
GCTACCAA | 0.136
AGATAGTG | 0.0442
GCGTTGCA | -0.0961
AAAGCCTG | -0.193
TAGGCCTA | 0.117
GCCTCGAA | 0.101
ATAGGGAC | -0.0311
GTTCGCTA | -0.06
ATTCATGC | -0.163

Sequence | PBM E-score
AGCAACGA | 0.0254
ACCCTGAA | 0.399
GATACGCA | 0.0615
GAGCAGGA | 0.00517
GGGGCACA | -0.0626
GGCAAGAA | -0.0674
ACACAGTG | -0.157
TAAGAACA | 0.224
GTTCTTTA | 0.135
GATCAACC | -0.0383
ATTGAGGA | -0.00619
AAGGGTGG | 0.19
ATATATAG | 0.114
AGCCACCA | -0.135
ACGTATGC | -0.163
TCTAATAA | 0.158
AATGATGA | 0.0609
CTGGGATA | -0.0065
AGAATTTA | -0.129
TCGTTTAA | 0.108
